Source: article PMC4159876, “Quantitative Analysis of Tau-Microtubule Interaction Using FRET” (International Journal of Molecular Sciences, 2014)

Biological target: T1, hTau40 protein labeled with carboxy tetramethylrhodamine succinimidyl ester (tau-rhodamine) (UniProt P10636-8 1-441, 5(6)-carboxytetramethylrhodamine (5(6)-TAMRA) on the N-terminal amine; close to 1 mole of dye per mole of protein)
T1 construct: tau, largest isoform (hTau40); Cys291 and Cys322 are named on this isoform; No tag is mentioned; also called labeled tau; tau derivatized with 5(6)-TAMRA
Experiment: FRET or BRET; FRET titration of tau-rhodamine with Flutax-2 microtubules assembled from subtilisin-cleaved tubulin (S-tubulin); apparent Kd; data not shown
Settings: both partners purified

B1: microtubules assembled with Flutax-2 from subtilisin-cleaved tubulin (S-tubulin) (complex)
chain 1: [in this place about 450 residues]
chain 2: MREIVHIQAGQCGNQIGAKFWEVISDEHGIDPTGSYHGDSDLQLERINVYYNEATGNKYVPRAILVDLEPGTMDSVRSGPFGQIFRPDNFVFGQSGAGNNWAKGHYTEGAELVDSVLDVVRKESESCDCLQGFQLTHSLGGGTGSGMGTLLISKIREEYPDRIMNTFSVMPSPKVSDTVVEPYNATLSVHQLVENTDETYSIDNEALYDICFRTLKLTTPTYGDLNHLVSATMSGVTTCLRFPGQLNADLRKLAVNMVPFPRLHFFMPGFAPLTSRGSQQYRALTVPELTQQMFDSKNMMAACDPRHGRYLTVAAVFRGRMSMKEVDEQMLNVQNKNSSYFVEWIPNNVKTAVCDIPPRGLKMSATFIGNSTAIQELFKRISEQFTAMFRRKAFLHWYTGEGMDEMEFTEAESNMNDLVSEYQQYQDATADEQ
  Kd: 3.1 µM
